In publication PMC4007767:
Results are given in words; binding and its absence hold for the method and conditions named. In cells and extracts the contact can be indirect. Some binding calls cover weakened binding; strength is not graded here.

By UniProt entry, the sequences of proteins in these tests, tags left out. Where a name states a change or a piece, a line headed by the entry shows the natural chain unless it says otherwise. Residues count along the entry.
UniProt Q99816: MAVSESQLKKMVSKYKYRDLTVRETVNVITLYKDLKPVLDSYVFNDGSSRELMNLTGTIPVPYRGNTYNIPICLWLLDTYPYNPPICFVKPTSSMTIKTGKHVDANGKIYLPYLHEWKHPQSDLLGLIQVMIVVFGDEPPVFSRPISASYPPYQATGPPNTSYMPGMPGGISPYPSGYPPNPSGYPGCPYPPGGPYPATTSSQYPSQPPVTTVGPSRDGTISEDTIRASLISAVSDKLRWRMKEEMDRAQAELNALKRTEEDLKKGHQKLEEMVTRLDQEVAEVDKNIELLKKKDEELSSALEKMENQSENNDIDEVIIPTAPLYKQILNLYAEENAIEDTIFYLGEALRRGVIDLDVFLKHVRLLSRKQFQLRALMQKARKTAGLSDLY
UniProt A5D8V6: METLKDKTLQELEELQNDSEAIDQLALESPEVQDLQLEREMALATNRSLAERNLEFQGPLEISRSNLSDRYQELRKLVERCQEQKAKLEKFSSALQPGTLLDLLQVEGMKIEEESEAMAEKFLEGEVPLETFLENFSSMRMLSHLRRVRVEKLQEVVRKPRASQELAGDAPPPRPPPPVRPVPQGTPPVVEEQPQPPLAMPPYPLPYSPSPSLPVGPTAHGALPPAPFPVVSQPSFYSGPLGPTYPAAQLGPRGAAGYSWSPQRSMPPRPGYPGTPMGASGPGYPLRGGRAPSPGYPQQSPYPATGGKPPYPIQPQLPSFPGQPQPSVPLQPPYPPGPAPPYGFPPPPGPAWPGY
UniProt Q8NEZ2: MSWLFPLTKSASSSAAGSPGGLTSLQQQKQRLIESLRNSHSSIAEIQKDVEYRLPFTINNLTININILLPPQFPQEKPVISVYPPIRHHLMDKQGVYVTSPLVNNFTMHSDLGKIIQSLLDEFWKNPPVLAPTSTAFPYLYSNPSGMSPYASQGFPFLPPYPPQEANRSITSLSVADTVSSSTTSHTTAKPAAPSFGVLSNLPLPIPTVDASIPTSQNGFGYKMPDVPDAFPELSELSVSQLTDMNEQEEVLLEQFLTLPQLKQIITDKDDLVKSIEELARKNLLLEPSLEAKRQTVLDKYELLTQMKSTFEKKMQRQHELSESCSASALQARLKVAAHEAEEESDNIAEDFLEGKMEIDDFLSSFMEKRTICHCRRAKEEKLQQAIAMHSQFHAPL
Flag–VPS37A(Mod(r)): residues 229-397 of Q8NEZ2

What was measured:
[1] = target: HA–TSG101 (in vitro translated) (human) (UniProt Q99816); experiment: co-IP; 35S-labelled ESCRT-I subunits co-translated in rabbit reticulocyte lysate, diluted tenfold in 10 mM Tris-HCl pH 7.4, 150 mM NaCl, 1 mM EDTA, 0.1% Triton X-100; IP of HA–TSG101 with anti-HA agarose overnight; SDS-PAGE and phosphoimaging
[2] = target: Flag–VPS37C (in vitro translated) (human) (UniProt A5D8V6); experiment: as above
[3] = target: Flag–VPS37A (in vitro translated, full length) (human) (UniProt Q8NEZ2); experiment: as above
[4] = target: MVB12A–strep (expressed in cells) (human) (UniProt Q96EY5); experiment: pull-down; lysates of cells transiently expressing strep-tagged UBAP1, UBAP1 fragments or MVB12A applied to Strep-Tactin beads; control-depleted cells (for MVB12A also cells depleted of VPS37A, VPS37B or VPS37C); 10 mM Tris-HCl pH 7.4, 150 mM NaCl, 1 mM EDTA, 0.5% CHAPS; 4°C; western blot of endogenous partners
[5] = target: Flag–VPS37A(Mod(r)) (human) (UniProt Q8NEZ2); experiment: co-IP; 35S-labelled ESCRT-I subunits co-translated in rabbit reticulocyte lysate, diluted tenfold in 10 mM Tris-HCl pH 7.4, 150 mM NaCl, 1 mM EDTA, 0.1% Triton X-100; IP of HA–TSG101 with anti-HA agarose overnight; SDS-PAGE and phosphoimaging

With “Flag–VPS37A (in vitro translated, full length) (from UniProt Q8NEZ2 1-397)” as the substance, how does the binding [1] read?
Its binding is “binds”.

What does the source list for “MVB12A(EBB1-EBB2) (from UniProt Q96EY5 192-273) (domain or fragment)”?
binding [2]: binds; binding [3]: no binding

“VPS37C (endogenous) (from UniProt A5D8V6 1-355)” was tested. Which binding [4] did it give?
Its binding is “binds”.

With “strep–MVB12A (in vitro translated, full length) (from UniProt Q96EY5 1-273)” as the substance, how does the binding [5] read?
The binding was “no binding”.

And the binding [2]?
Its binding is “binds”.

What about the binding [3] of the same substance?
Its binding is “no binding”.
